In the supplement of paper PMC8728848:
Some of the results follow.

How the values were obtained:
Assay in all cases: glycan array binding signal (z-score within array); higher = stronger binding
Settings in all cases: glycan notation: IUPAC condensed, linker removed
[1] = target: GlcNAc6S(b1-3)Gal(b1-4)GlcNAc
How it was run: (§1)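 Glycan array data came from 3228 arrays in the Consortium for Functional Glycomics database, and only arrays with an available protein sequence were kept. Glycan names were put into IUPAC-condensed notation, and columns mapping to the same glycan were averaged. The binding signal is a within-array Z-score, averaged across arrays of one protein sequence run at different concentrations or buffers and across linkers. A negative Z-score can be read as non-binding.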

Kdn(a2-3)Gal(b1-3)GalNAc = target: Kdn(a2-3)Gal(b1-3)GalNAc
How it was run: as §1

Kdn(a2-3)Gal(b1-3)GlcNAc = target: Kdn(a2-3)Gal(b1-3)GlcNAc
How it was run: as §1

Kdn(a2-3)Gal(b1-4)Glc = target: Kdn(a2-3)Gal(b1-4)Glc
How it was run: as §1

Kdn(a2-3)Gal(b1-4)GlcNAc = target: Kdn(a2-3)Gal(b1-4)GlcNAc
How it was run: as §1

[2] = target: Kdn(a2-3)Gal(b1-4)[Fuc(a1-3)]GlcNAc
How it was run: as §1

Kdn(a2-6)Gal(b1-4)GlcNAc = target: Kdn(a2-6)Gal(b1-4)GlcNAc
How it was run: as §1

[3] = target: Man(a1-2)Man(a1-2)Man(a1-3)Man
How it was run: as §1

[4] = target: Man(a1-2)Man(a1-2)Man(a1-3)[Man(a1-2)Man(a1-3)[Man(a1-2)Man(a1-6)]Man(a1-6)]Man(b1-4)GlcNAc(b1-4)GlcNAc
How it was run: as §1

[5] = target: Man(a1-2)Man(a1-2)Man(a1-3)[Man(a1-2)Man(a1-6)[Man(a1-3)]Man(a1-6)]Man(b1-4)GlcNAc(b1-4)GlcNAc
How it was run: as §1

[6] = target: Man(a1-2)Man(a1-2)Man(a1-6)[Man(a1-3)]Man
How it was run: as §1

Man(a1-2)Man(a1-3)Man = target: Man(a1-2)Man(a1-3)Man
How it was run: as §1

[7] = target: Man(a1-2)Man(a1-3)[Man(a1-2)Man(a1-6)]Man
How it was run: as §1

[8] = target: Man(a1-2)Man(a1-3)[Man(a1-2)Man(a1-6)]Man(a1-6)[Man(a1-2)Man(a1-2)Man(a1-3)]Man
How it was run: as §1

[9] = target: Man(a1-2)Man(a1-3)[Man(a1-2)Man(a1-6)]Man(a1-6)[Man(a1-2)Man(a1-2)Man(a1-3)]Man(b1-4)GlcNAc(b1-4)GlcNAc
How it was run: as §1

[10] = target: Man(a1-2)Man(a1-3)[Man(a1-3)[Man(a1-6)]Man(a1-6)]Man(b1-4)GlcNAc(b1-4)GlcNAc
How it was run: as §1

[11] = target: Man(a1-2)Man(a1-3)[Man(a1-6)]Man(a1-6)[Man(a1-2)Man(a1-3)]Man(b1-4)GlcNAc(b1-4)GlcNAc
How it was run: as §1

[12] = target: Man(a1-2)Man(a1-6)[Man(a1-3)]Man(a1-6)[Man(a1-2)Man(a1-2)Man(a1-3)]Man
How it was run: as §1

[13] = target: Man(a1-2)Man(a1-6)[Man(a1-3)]Man(a1-6)[Man(a1-2)Man(a1-2)Man(a1-3)]Man(b1-4)GlcNAc(b1-4)GlcNAc
How it was run: as §1

Man(a1-3)[Man(a1-6)]Man = target: Man(a1-3)[Man(a1-6)]Man
How it was run: as §1

[14] = target: Man(a1-3)[Man(a1-6)]Man(a1-6)[Man(a1-2)Man(a1-3)]Man(b1-4)GlcNAc(b1-4)GlcNAc
How it was run: as §1

[15] = target: Man(a1-3)[Man(a1-6)]Man(a1-6)[Man(a1-3)]Man
How it was run: as §1

[16] = target: Man(a1-3)[Man(a1-6)]Man(a1-6)[Man(a1-3)]Man(b1-4)GlcNAc(b1-4)GlcNAc
How it was run: as §1

[17] = target: Man(a1-3)[Man(a1-6)]Man(b1-4)GlcNAc(b1-4)GlcNAc
How it was run: as §1

[18] = target: Man(a1-3)[Man(a1-6)]Man(b1-4)GlcNAc(b1-4)[Fuc(a1-6)]GlcNAc
How it was run: as §1

Man(a1-6)Man = target: Man(a1-6)Man
How it was run: as §1

Man(b1-4)GlcNAc = target: Man(b1-4)GlcNAc
How it was run: as §1

MurNAc(b1-4)GlcNAc = target: MurNAc(b1-4)GlcNAc
How it was run: as §1

Neu5Ac(a2-3)Gal = target: Neu5Ac(a2-3)Gal
How it was run: as §1

[19] = target: Neu5Ac(a2-3)Gal(b1-3)GalNAc
How it was run: as §1

B1: Epa1-NP (Candida glabrata), Q6VBJ0 (protein)
chain: MILNPALFLNKCVCIYTTLILLLLTNGGYATSSNDISLASKDPTTFPLGCSPDITTPKKGLSMELYSYDFRKKGSYPCWDAAYLDPNYPRTGYKSHRLLAKVDGVTGNINFYYHATKGCTPQLGHLPASYNYPKPLTMTNFTMLLYGYFRPKVTGFHTFTISADDLLFVNFGAGNAFDCCRRDSSADHFGNYQAYAIWGSKTAKDELTVHLDAGVYYPIRLFYNNREYDGALSFTFKTESNENTVSDFSEYFFSLDDTEEGCPGLISYDSSCASVKTSKIIGIDYHTETPNENLVPITKTIYHLGIPCTGTTTTPLCGSGFYDPLANKCVTINTSSTSSVTKTTSHTTSKEVSFHSSISSQKTLIPKSIPSPYGPIKSQSIPTEMETSSEISSSEYAFSDVISTPSHSPYTKKHSSLNSSSYTSTVIHSLTSYSISQGIFSTSLSEQNITSKSSTDKFSTATSMSNNITQSSIIISQFSTNNENYTTTSMHTSSDKISTETLNNSISTTTSILFSNSSTILKNNTTIISSDKDTHYHPVNPTIVCSTNKTEIICASITQPSISNSNNHWSSSVLKFNSTTVRSTLPSSAGSNETSINVPFSSSTESNTSTSSTSTSNSKMVRSTLPSSAGSNETSISVPFSSSTESNTSTSSTSTSNSKMVRSTLPSSAGSNETSINVPFSSSTESNTSTSSTSTSNSKTVRSTPFSSAGIIMTSLSQRNNKSASSYASSNSKCYNTADSCRKVHSTPSYLLTSSYTSEGVDYDCSLVSTKLKINDTNCVNNKHTTKSCLKTSVTTTIPTLEIKTARKSSSNTIGLHSYPTSSPNKSISSAPIIGYISSFKTIKTASPSYQTSDLTTITTITSLNNPGSTAVENTHESNDKSRKTSSNDISSKHSVIKETKDAVESSNKSHQTNTLKCSSIIIASSSHNSYESLGGTTLTLTLSKVYSPQNNDTLPFLEISEVNPSRTVLPESSKMMQYLTSTEERNKTARNTIATNIVSISTFHFEGEGNAIRMGYTQLLLMLIGIIVMNIGT
[1]
  glycan array binding signal (z-score): 0.881
Kdn(a2-3)Gal(b1-3)GalNAc
  glycan array binding signal (z-score): -0.289
Kdn(a2-3)Gal(b1-3)GlcNAc
  glycan array binding signal (z-score): -0.331
Kdn(a2-3)Gal(b1-4)Glc
  glycan array binding signal (z-score): -0.3
Kdn(a2-3)Gal(b1-4)GlcNAc
  glycan array binding signal (z-score): -0.3
[2]
  glycan array binding signal (z-score): -0.201
Kdn(a2-6)Gal(b1-4)GlcNAc
  glycan array binding signal (z-score): -0.271
[3]
  glycan array binding signal (z-score): -0.333
[4]
  glycan array binding signal (z-score): -0.551
[5]
  glycan array binding signal (z-score): -0.551
[6]
  glycan array binding signal (z-score): -0.335
Man(a1-2)Man(a1-3)Man
  glycan array binding signal (z-score): -0.318
[7]
  glycan array binding signal (z-score): -0.337
[8]
  glycan array binding signal (z-score): -0.276
[9]
  glycan array binding signal (z-score): -0.303
[10]
  glycan array binding signal (z-score): -0.551
[11]
  glycan array binding signal (z-score): -0.421
[12]
  glycan array binding signal (z-score): -0.287
[13]
  glycan array binding signal (z-score): -0.285
Man(a1-3)[Man(a1-6)]Man
  glycan array binding signal (z-score): -0.31
[14]
  glycan array binding signal (z-score): -0.303
[15]
  glycan array binding signal (z-score): -0.29
[16]
  glycan array binding signal (z-score): -0.413
[17]
  glycan array binding signal (z-score): -0.374
[18]
  glycan array binding signal (z-score): -0.281
Man(a1-6)Man
  glycan array binding signal (z-score): -0.287
Man(b1-4)GlcNAc
  glycan array binding signal (z-score): -0.324
MurNAc(b1-4)GlcNAc
  glycan array binding signal (z-score): -0.285
Neu5Ac(a2-3)Gal
  glycan array binding signal (z-score): -0.315
[19]
  glycan array binding signal (z-score): -0.292
